Laboratory results from PubChem BioAssay AID1347417 (National Center for Advancing Translational Sciences (NCATS), 2020).
About 5,300 (4.4%) of roughly 120,000 compounds were called active. The inconclusive results got no clear call from the source; some entries with a clear call stand among them for comparison. Calls come from the whole dose curve; as a rule, active = well fitted inhibition curve with a large enough effect; inconclusive = small, poorly fitted or top-dose-only effect; inactive = no such curve, though single readings can be large or run the other way. Where the call is inconclusive, the potency comes from a doubtful curve fit.

Test: qHTS Primary assay for Inhibitors of Plasmodium falciparum Dd2 growth in vitro; note: nearly all actives have a fitted effect of over 65% in size;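 for activity, negative = inhibition: plate controls were DMSO vehicle for no effect and reference drug for full effect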
Conditions: P. falciparum Dd2 growth, SYBR Green, 72 h; activity, negative = inhibition: at 28.9 µM (top of the series) unless noted; series mostly up to 28.9 µM
Method in brief: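 Infected erythrocytes (Dd2, 0.3% parasitemia, 2.5% hematocrit final) are added to compound in RPMI-1640/Albumax II medium, grown 72 h at 37C in low oxygen, then lysed with saponin/Triton-X containing SYBR Green and read by fluorescence.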
Potency is the fitted concentration of half-maximal effect; tags give direction and shape of the fitted curve.

Row | SMILES | Potency | activity, negative = inhibition
1 | CCOc1ccc(-c2cc3c(=O)n(CCNC(=O)c4ccc(OC)c(F)c4)ccn3n2)cc1 | inconclusive: 0.631 µM [inhibitor, partial curve] | –
2 | Cc1c(F)cccc1NC(=O)N1CCC(OC2CCN(Cc3ccccc3)CC2)CC1 | active: 4.47 µM | –
3 | CC(C)c1nccn1C(C)C(=O)N1CCC(C#N)(c2ccccc2)CC1 (centres undefined) | inconclusive: 3.98 µM [inhibitor, partial curve, poor fit] | –
4 | COCC(=O)N(C)Cc1ccccc1C(F)(F)F | inactive | –
5 | CCOc1ccc(S(=O)(=O)N2CCc3nc4cc[nH]n4c(=O)c3C2)cc1 | – | inactive: 8.27% [at 5.79 µM]
6 | Cc1ccc(-c2nc3cnccn3c2NCCC(=O)N(C)C)cc1 | inactive | –
7 | CNC(=O)N1CCC(C2CCN(C(=O)CC3CCCCC3)C2)CC1 (centres undefined) | inconclusive: 8.91 µM [inhibitor, single point] | –
8 | O=C1CC(C(=O)N2CCc3nc(-c4ccccc4)[nH]c3C2)C2(CCCCC2)O1 (centres undefined) | inconclusive: 10 µM [inhibitor, single point] | –
9 | O=C1N(C2CCN(S(=O)(=O)c3cnc[nH]3)CC2)C(c2ccccc2)C12CCCC2 (centres undefined) | inactive | –
10 | c1ccc(CN2CC[C@H](c3nc4ncccc4[nH]3)C2)cc1 | inconclusive: 12.6 µM [inhibitor, partial curve, poor fit] | –
11 | CC(C)(C)c1ccc(C(=O)Nc2ccc([C@H]3OCC(=O)N[C@@H]3CO)cc2)cc1 | inconclusive: 12.6 µM [inhibitor, single point] | –
12 | CCOc1ccc2nc(N3CCCC(C(=O)Nc4ccc(OC)c(Cl)c4)C3)sc2c1 (centres undefined) | inconclusive: 10 µM [inhibitor, single point] | –
13 | COc1ccccc1CCN1CCC(CN(C)C(=O)CCc2ccccc2Cl)CC1 | active: 8.91 µM | –
14 | CCCCNC(=O)c1cccc2c1CCN2C(=O)Nc1ccccc1 | inconclusive: 1 µM [inhibitor, partial curve, poor fit] | –
15 | CC(C)Cn1cncc1CNC(=O)c1ccc2nc(-c3ccc(F)cc3)cn2c1 | inconclusive: 3.16 µM [inhibitor, full curve, poor fit] | –
16 | O=C(c1ccccc1)N1CCc2nc(C3CC3)nc(-c3ccc(Cl)cc3)c2C1 | – | inconclusive: -151% [inhibitor]
17 | CCOc1ccc(C(=O)N2CCCC3(C2)NC(=O)N(Cc2ccccc2)C3=O)cc1 (centres undefined) | inconclusive: 10 µM [inhibitor, single point] | –
18 | CC(=O)N1CCc2cc(Br)cc(S(=O)(=O)CCC(=O)N3CCN(c4ccccc4)CC3)c21 | inconclusive: 11.2 µM [inhibitor, partial curve, poor fit] | –
19 | CN(Cc1cccnc1)c1ccc(-c2nc(COc3ccccc3)no2)cn1 | inconclusive: 17.8 µM [inhibitor, single point] | –
20 | O=C(C[C@@H]1CCNC[C@@H]1Cc1cc(COc2ccccc2)on1)NCc1cccs1 | inconclusive: 0.794 µM [inhibitor, full curve, poor fit] | –
21 | Fc1ccc(Nc2nc(SCc3ccccc3F)nc3ccccc23)cc1 | inconclusive: 17.8 µM [inhibitor, single point] | –
22 | Cc1ccc(C)c(NC(=O)Cn2c(N3CCN(c4ccccc4)CC3)nc(C)cc2=O)c1 | inactive | –

Row | SMILES | Potency | activity, negative = inhibition
23 | Cc1cc([N+](=O)[O-])ccc1NC(c1nnc(-c2ccccc2)o1)c1ccccc1F (centres undefined) | inconclusive: 2.82 µM [inhibitor, single point] | –
24 | CC1(C)[C@H]2CC[C@@H](CNC(=O)Cc3cccc(Cl)c3)[C@@H]1C2 | inconclusive: 31.6 µM [inhibitor, single point] | –
25 | O=C(c1ccccc1OC(F)(F)F)N1CCC(c2n[nH]c(=O)n2-c2ccccc2)CC1 | inactive | –
26 | CC1=C[C@@H](CN(C)C)[C@H](C(C)C)C[C@H]1Cc1nc2c(C)cccc2[nH]1 | inconclusive: 0.501 µM [inhibitor, full curve, poor fit] | –
27 | CCc1ccc(CNC(=O)C2(CC)CCCCC(=O)N2)cc1 (centres undefined) | inactive | –
28 | CCc1ccccc1-n1nc(-c2c(C)nc3scc(CC(=O)NCc4ccco4)n3c2=O)cc1C | inactive | –
29 | COc1ccccc1NC(=O)C1CCN(S(=O)(=O)c2ccc3[nH]c4c(c3c2)CCCCC4)CC1 | inconclusive: 14.1 µM [inhibitor, single point] | –
30 | Oc1ccc(-c2nc(-c3ccccc3)c(-c3ccc(Br)cc3)[nH]2)cc1 | active: 6.31 µM | –
31 | Cc1nn(-c2ccccc2)c2c1cc1c(=O)n(C)c(=O)nc-1n2-c1cccc(Cl)c1 | inconclusive: 11.2 µM [inhibitor, single point] | –
32 | CCN(CC)C(=O)CC[C@H]1CNC(=O)[C@@H]2[C@@H](CCN2Cc2ccc(F)cc2)N1C | inactive | –
33 | COc1ccc(-c2noc([C@@H]3CCCN3C(=O)Cc3ccccc3Cl)n2)cc1 | inconclusive: 0.316 µM [inhibitor, full curve] | –
34 | O=C(Cc1c[nH]c2ncc(-c3ccccc3)cc12)NCCN1CCOCC1 | inconclusive: 17.8 µM [inhibitor, single point] | –
35 | CC(C)Cc1cn(CC2CCCN(C(=O)c3n[nH]c4c3CCCC4)C2)nn1 (centres undefined) | inactive | –
36 | CCc1c(C)sc2c1CCN(C(=O)Nc1cc(C)cc(C)c1)C2c1ccccc1 (centres undefined) | inconclusive: 10 µM [inhibitor, single point] | –
37 | Cc1ccc2oc(=O)n(CCC(=O)NC3CCCN(c4ncccn4)C3)c2c1 (centres undefined) | inactive | –
38 | COCCCN1C(=O)c2[nH]nc(-c3ccccc3O)c2C1c1ccc(OCc2ccccc2)cc1 (centres undefined) | active: 8.91 µM | –
39 | Cc1ccccc1Cn1cc(-c2ccncc2)cc1C(=O)N1CCN(C2CCCCC2)CC1 | inconclusive: 11.2 µM [inhibitor, partial curve, poor fit] | –
40 | CCOc1ccc(C2c3c(oc4ccc(C)cc4c3=O)C(=O)N2CCCN(C)C)cc1 (centres undefined) | inconclusive: 17.8 µM [inhibitor, single point] | –
41 | O=C1CCCCN1CC(=O)N1CCCC(c2ccccc2)(c2ccccc2)C1 | inactive | –
42 | CCOC(=O)C1CCN(C(=O)c2ccc(NC(=O)c3nsc4ccccc34)cc2)CC1 | inconclusive: 17.8 µM [inhibitor, single point] | –
43 | O=C(NCc1ccccc1Cl)c1ccc(Cn2c(SCc3ccccc3)nc3cccnc32)cc1 | inconclusive: 11.2 µM [inhibitor, single point] | –
44 | COc1ccc(C(=O)N2CCCCCNC(=O)[C@H]3C[C@H](C(=O)N4CCc5ccccc5C4)C[C@H]32)cn1 | inconclusive: 5.01 µM [inhibitor, partial curve, poor fit] | –

Row | SMILES | Potency | activity, negative = inhibition
45 | O=C(Nc1ccc2n(c1=O)C[C@H]1C[C@@H]2CN(C2CCOCC2)C1)c1ccccc1 | inconclusive: 15.8 µM [inhibitor, single point] | –
46 | O=C(Nc1cccc(C(=O)N2CCN(c3cccc(Cl)c3)CC2)c1)c1nsc2ccccc12 | inconclusive: 11.2 µM [inhibitor, single point] | –
47 | COc1ccc(-c2cn(C)c(=O)n3cc(CN(C)C)nc23)c(C(F)(F)F)c1 | inconclusive: 1.58 µM [inhibitor, partial curve, poor fit] | –
48 | COc1ccc(C(=O)N2CCc3c(nc4cc[nH]n4c3=O)C2)c(C)c1 | inactive | –
49 | CN(c1ccccc1)c1ccc2ncn(C3CC3)c(=O)c2n1 | inactive | –
50 | O=C([C@@H]1C[C@H](Oc2ccccc2)CN1C(=O)CN1CCCCCC1)N1CCOCC1 | inconclusive: 10 µM [inhibitor, single point] | –
51 | COCCN1CCC(CN(Cc2ccncc2)C(=O)[C@@H]2C[C@@H]3C=C[C@H]2C3)CC1 | inactive | –
52 | COc1cc(CCNC(=O)c2ccc3c(c2)c(C)c(C)n3Cc2cccc(C)c2)cc(OC)c1OC | inconclusive: 20 µM [inhibitor, single point] | –
53 | O=C(c1c(OCC2CC2)cc(=O)n2c1CCCCC2)N1CCc2ccccc2C1 | inactive | –
54 | C[C@]1(O)CCN(C(=O)CCS(=O)(=O)c2ccccc2)C[C@@H]1O | inactive | –
55 | COc1ccc2nc3n(c2c1)[C@@H](CNCc1ccc2c(c1)OCO2)COC3 | inconclusive: 7.94 µM [inhibitor, partial curve] | –
56 | Cc1cc(C(=O)NCc2cccc(Br)c2)c2c(C)nn(-c3ccccc3)c2n1 | inconclusive: 5.62 µM [inhibitor, partial curve] | –
57 | CC(C)CCNC(=O)C1CCCN(C2CCN(CCc3ccccc3)CC2)C1 (centres undefined) | inconclusive: 10 µM [inhibitor, single point] | –
58 | O=C1NCCCCCCN(C(=O)c2ccco2)[C@H]2C[C@H](c3nc(-c4cnccn4)no3)C[C@@H]12 | inconclusive: 11.2 µM [inhibitor, single point] | –
59 | Cc1nc(-c2cccs2)cc([C@H]2CN3CC[C@H]2C[C@@H]3CNC(=O)C2CC2)n1 | inconclusive: 31.6 µM [inhibitor, single point] | –
60 | CN1c2cc(C(=O)NCCc3ccccc3)ccc2C(=O)N2CCCCC21 (centres undefined) | inconclusive: 3.98 µM [inhibitor, single point] | –
61 | COCCNC(=O)c1nc(-c2ccccc2)c2ccccn12 | inconclusive: 14.1 µM [inhibitor, partial curve, poor fit] | –
62 | O=C(CCn1ccc2cc(S(=O)(=O)N3CCCC3)ccc21)NCc1cccc(Cl)c1 | inconclusive: 10 µM [inhibitor, partial curve, poor fit] | –
63 | CN1CCN(c2cc(=O)c3ccnc(-c4cn[nH]c4)c3o2)CC1 | inconclusive: 0.708 µM [inhibitor, full curve, poor fit] | –
64 | COc1ccc(-n2c(SCC(=O)Nc3cccc(C)c3C)nc3c([nH]c4ccccc43)c2=O)cc1 | inconclusive: 3.98 µM [inhibitor, single point] | –
